Results taken from the RNAGym collection of RNA variant scans (doi:10.1073/pnas.2313332121).
Variants at the floor of the assay are shown more often than the library holds them.

B1: TPR 5TU (parent)
chain: GGAUCUUCUCGAUCUAACAAAAAAGACAAAUCUGCCACAAAGCUUGAGAGCAUCUUCGGAUGCAGAGGCGGCAGCCUUCGGUGGCGCGAUAGCGCCAACGUUCUCAACUAUGACACGCAAAACGCGUGCUCCGUUGAAUGGAGUUUAUCAUG

Variants of: B1
Test: polymerase ribozyme fitness, log enrichment relative to wild type (log ratio); higher = more active; in vitro selection for triplet polymerase activity
Outline: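 Mutant libraries of both subunits of a heterodimeric triplet polymerase ribozyme were PCR-built, transcribed, and selected once in triplicate, with frozen incubation at −7 °C and capture of gel-excised extended constructs on streptavidin beads before RT-PCR. Illumina sequencing of input and output libraries was filtered to genotypes with ≥10 input reads and ≥1 read per output. Fitness is the logarithm of genotype enrichment over wild-type enrichment, using inverse-variance-weighted replicate averages. The logarithm is base 2.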

Row | Variant | polymerase ribozyme fitness (log ratio)
1 | GGAUCUUCUCGAUCUAACAAAAAAGACAAAUCUGCCACAAAACUUGAGAACAUCUUAGGAUGCAGAGGCGGCAGCCUUCGGUGGCGCGAUAGCACCAACGUUCUCAACUAUGACACGCAAAACGCGUGCUCCGUUGAAUGGAGUUUAUCAUG [G42A G50A C57A G94A] | ≤ -4.2
2 | GGAUCUUCUCGAUCUAACAAAAAAGACAAAUCUGCCACAAAACUUGAGACCAUCUUCGGAUGCAGAGGCGGCAGCCUUCGGUGGCGCGAUACCGCCAACGUUCUCAACUAUGACACGCAAAACGCGUGCUCUGUCGAAUGGAGUGUAUCAUG [G42A G50C G92C C132U U135C U145G] | ≤ -4.2
3 | GGAUCUUCUCGAUCUAACAAAAAAGACAAAUCUGCCACAAAACUUGAGAGCAUCUUCGAAUGCAGAGACGGCAGCCUUCGGUGGCGCGGUAGCGCCAACGUUGUCAACUAUGACACGCAAAACGCGUGCUCCGUUGAAUGGAGGUUAUCAUG [G42A G59A G68A A89G C103G U144G] | ≤ -4.2
4 | GGAUCUUCUCGAUCUAACAAAAAAGACAAAUCUGCCACAAAACUUGAGAGCAUCUUCGAAUGCAGAGGCGGCAGCCUUCGGUGGCGCGAUAGCGCCAACGUGCUCAACUAUGACACGCAAAACGCGUGCUCCGUUGAAUGGAGUUUAUCAUG [G42A G59A U102G] | ≤ -4.2
5 | GGAUCUUCUCGAUCUAACAAAAAAGACAAAUCUGCCACAAAACUUGAGAGCAUCUUCGCAUGCAGAGGCGGCAGCCUUCUGUGGCGCGAGAGCGCCAACGUUCUCAACUAUGACACGCAAAACGCGUGCUCCGUUGAAUGGAGUUUAUCAUG [G42A G59C G80U U90G] | ≤ -4.2
6 | GGAUCUUCUCGAUCUAACAAAAAAGACAAAUCUGCCACAAAACUUGAGAGCAUCUUCGUAUGCAGAGGCGGCAGCUUUCGGUGGCGCUAUAGCGCCAACGUUGUCAACUAUGACACGCAAAACGCGUGCUCCGUUGAAUGGAGUUUAUCAUU [G42A G59U C76U G88U C103G G152U] | ≤ -4.2
7 | GGAUCUUCUCGAUCUAACAAAAAAGACAAAUCUGCCACAAAACUUGAGAGCAUCUUCGGAUCCAGAGGCGGCAGCCUUCGGUGGCGCGAUAGCGCCAACGUUCUCAACUAUGACAGGCAAAACGUGUGCUCCGUUGAAUGGUGUUUAUCCUG [G42A G62C C116G C125U A142U A150C] | ≤ -4.2
8 | GGAUCUUCUCGAUCUAACAAAAAAGACAAAUCUGCCACAAAACUUGAGAGCAUCUUCGGAUUCACAGGCGGCAGCCCUCGGUGACGCGAUAGCGCCAACGUUCUCAACUAUGACACGAAAAACGUGUGCUCCGUUGAAUGGAGUUUAUCAUG [G42A G62U G65C U77C G84A C118A C125U] | ≤ -4.2
9 | GGAUCUUCUCGAUCUAACAAAAAAGACAAAUCUGCCACAAAACUUGAGAGCAUCUUCGGAUGCAGAGCCGGCAGCCUUCGGUGGCGCGAUAGCUCCAACGUUCUCAACUAUGACACGCAAAACGCGUGCUCCGUUGAAUGGAGUUUAUCAUG [G42A G68C G94U] | ≤ -4.2
10 | GGAUCUUCUCGAUCUAACAAAAAAGACAAAUCUGCCACAAAACUUGAGAGCAUCUUCGGAUGCAGAGGCGGCACCCUUCGGUCGCGCGAUAGCGCCAACGUUCUCAUCUAUCACACGCAAAACGCGUGCUCCGUUGAAUGGAGUUUAUCAUG [G42A G74C G83C A107U G112C] | ≤ -4.2
11 | GGAUCUUCUCGAUCUAACAAAAAAGACAAAUCUGCCACAAAACUUGAGAGCAUCUUCGGAUGCAGAGGCGGCAGCCUUCGGUGACGCGAUAGCGCCAACGUUCUCAACUAUGACACGCAAAACGCGUGCUCCGUUGAAUGGAGUUUAUCAUG [G42A G84A] | -3.95
12 | GGAUCUUCUCGAUCUAACAAAAAAGACAAAUCUGCCACAAAACUUGAGAGCAUCUUCGGAUGCAGAGGCGGCAGCCUUCGGUGGCGCAAUAGGGCCAACGUUCUCAACUAUGACACGCAAAACGCGUGCUCCGUUGAAUGGAGUGUAUAAUG [G42A G88A C93G U145G C149A] | ≤ -4.2
13 | GGAUCUUCUCGAUCUAACAAAAAAGACAAAUCUGCCACAAAACUUGAGAGCAUCUUCGGAUGCAGAGGCGGCAGCCUUCGGUGGCGCGAUAUCGCCAACGUUCGCAAAUAUGACCCGCAAAACGCGUGCUCCGUUGAAUGGAGUUUAUCAUG [G42A G92U U104G C108A A115C] | ≤ -4.2
14 | GGAUCUUCUCGAUCUAACAAAAAAGACAAAUCUGCCACAAAACUAGAGAGCAUCUUCGGAUGCAGAGGCGGCGGCCUUCGGUGGUGCGAUAGCGCCAACGUUCUCAACUAUGAUACGCAAAACGCGUGCUCCGUUGAAUGGAGUUUAUCAUG [G42A U45A A73G C85U C114U] | ≤ -4.2
15 | GGAUCUUCUCGAUCUAACAAAAAAGACAAAUCUGCCACAAAACUAGAGAGCAUCUUCGGAUGCAGAGGAGGCAGCCUUCGGUGGCGCGAUAGCGCCAACGUUCUCAACUAUGACGCGCGGAACGCGUGCUCCGUUGAAUGGAGUUUAUCAUG [G42A U45A C69A A115G A119G A120G] | ≤ -4.2
16 | GGAUCUUCUCGAUCUAACAAAAAAGACAAAUCUGCCACAAAACUCGAGAGCAUCUUCGGCUGCAGAGGCGGCAGCCUUCGGUGGCGCGAUAGCGCCAACGUUCUCAACUAUGACAUGCAAAACGCGUGCUCCGUUGAAUGGAGUUUAUCAUG [G42A U45C A60C C116U] | ≤ -4.2
17 | GGAUCUUCUCGAUCUAACAAAAAAGACAAAUCUGCCACAAAACUUGAGAGCAACUUCGGAUGCAGAGGCGGCAGCCUUCGGUGGCGCGAUAGCGCCAACGUUCUCAACUAUGACACGCAAAACGCGUGCUCCGUUGAAUGGAGUUUAUCAUG [G42A U53A] | ≤ -4.2
18 | GGAUCUUCUCGAUCUAACAAAAAAGACAAAUCUGCCACAAAACUUGAGAGCAUCAUCGGAUGCAGAGGCGGCAGCCUUCGGUGGCGCGAUAGCGCCAACGUUCUCAACUAUGACACGCAAAACGCGUGCUCCGUUGAAUGGAGUUUAUCAUG [G42A U55A] | -3.81
19 | GGAUCUUCUCGAUCUAACAAAAAAGACAAAUCUGCCACAAAACUUGAGAGCAUCUACGGUUGCAGAGGCGGCAGCAUUCGGUGGCGCGAUAGCGCAAACGUGCUCAACUAUGACACGCAAAACGCGAGCUCCGUUGAAUGUAGUUUAUCGUG [G42A U56A A60U C76A C96A U102G U127A G141U A150G] | ≤ -4.2
